{
  "source": "PubChem BioAssay AID624296",
  "about": "(National Center for Advancing Translational Sciences (NCATS), 2012)",
  "note": "Out of some 350,000 compounds screened, about 9,900 (2.8%) were called active. Inconclusive means that the source gave no clear call. Such entries were picked first, then a sample of the others. Calls follow the shape of the dose curve; as a rule, active = well fitted activation curve with a large enough effect; inconclusive = small, poorly fitted or top-dose-only effect; inactive = no such curve, though single readings can be large or run the other way. No potency is given beside an inconclusive call; the fits are too rough. Potency is read from the fitted curve at half-maximal effect; tags tell the direction and shape of the fitted curve.",
  "data": [
    {"experiment": "A quantitative high throughput screen for small molecules that induce DNA re-replication in MCF 10a normal breast cells; also: nearly all actives have a fitted effect of over 50% in size.", "conditions": "MCF 10A DNA re-replication, Hoechst nuclear intensity, 48 h; series mostly up to 46.1 µM", "values": [
      {"smiles": "O=C(COC(=O)c1cccc(S(=O)(=O)N2CCc3ccccc32)c1)Nc1ncc(C(F)(F)F)cc1Cl", "Potency": "inconclusive [activator, single point]"},
      {"smiles": "CSc1cccc(NC(=O)COc2ccccc2)c1", "Potency": "inconclusive [activator, single point]"},
      {"smiles": "CCOc1ccc(S(=O)(=O)N(CC)CC(=O)NCc2ccccn2)cc1C", "Potency": "inactive"},
      {"smiles": "CNC(=S)N1N=C(c2cccs2)CC1c1ccc(OC)cc1", "note": "(centres undefined)", "Potency": "inconclusive [activator, full curve, poor fit]"},
      {"smiles": "COc1ccccc1OCC(=O)Nc1ccc(S(=O)(=O)N2CCOCC2)cc1", "Potency": "inconclusive [activator, single point]"},
      {"smiles": "C=CCn1c(SCc2nc3ccccc3c(=O)[nH]2)nc2scc(C3CC3)c2c1=O", "Potency": "active: 20.6 µM"},
      {"smiles": "O=C(CCNC(=O)c1ccc([N+](=O)[O-])cc1)Oc1ccc(F)c(F)c1", "Potency": "inactive"},
      {"smiles": "O=C(CSc1ccc(-c2ccccn2)nn1)Nc1ccc(F)c(F)c1", "Potency": "inconclusive [activator, partial curve]"},
      {"smiles": "O=C(COC(=O)c1cccnc1Cl)NCc1ccco1", "Potency": "inactive"},
      {"smiles": "Cc1ccc2c(c1)N(CCCC(=O)NCCCN1CCCCC1)C(=O)CO2", "Potency": "inactive"},
      {"smiles": "Cc1nn(CC(=O)Nc2ccc(Cl)c(S(=O)(=O)N(C)C)c2)c(C)c1[N+](=O)[O-]", "Potency": "inconclusive [activator, single point]"},
      {"smiles": "Cc1ccc(NC(=O)COc2ccccc2)cc1Cl", "Potency": "inconclusive [activator, partial curve, poor fit]"},
      {"smiles": "COc1ccc(-c2cc(C(F)(F)F)c(C#N)c(SCC(=O)Nc3ccccc3C#N)n2)cc1", "Potency": "inconclusive [activator, full curve]"},
      {"smiles": "Cc1cc(C)nc(NC2=NCCN2C(=O)NC2CCCCC2)n1", "Potency": "inactive"},
      {"smiles": "COc1cc(C(=O)NCC(c2ccco2)N2CCCC2)ccc1OCc1ccc(Cl)cc1Cl", "note": "(centres undefined)", "Potency": "active: 18.4 µM"},
      {"smiles": "O=[N+]([O-])c1cn(-c2nc(-c3ccco3)cc(C(F)(F)F)n2)cn1", "Potency": "inconclusive [activator, partial curve, poor fit]"},
      {"smiles": "CC(=O)NNC(=O)N1Cc2ccccc2Oc2ccc(Cl)cc21", "Potency": "inconclusive [activator, partial curve, poor fit]"},
      {"smiles": "Cc1ccc(Oc2ncccc2NC(=O)CC2(CC(=O)O)CCCC2)c2c1CCC2", "Potency": "inconclusive [activator, partial curve, poor fit]"},
      {"smiles": "O=C(NCCS(=O)(=O)NC1CCCC1)c1ccc(F)cc1", "Potency": "inconclusive [activator, full curve, poor fit]"},
      {"smiles": "CCOC(=O)Cc1csc(NC(=O)CCSc2ccccc2)n1", "Potency": "inconclusive [activator, single point]"},
      {"smiles": "O=C(O)CCC(=O)N1CCN(c2nc(-c3ccccc3)c3cc(Br)ccc3n2)CC1", "Potency": "active: 23.1 µM"},
      {"smiles": "CC(C)CNC(=O)c1ccccc1NC(=O)c1ccc(CN2CCOCC2)cc1", "Potency": "inactive"},
      {"smiles": "Cc1ccc(CNC(=O)CSCC(=O)O)cc1", "Potency": "inconclusive [activator, single point]"},
      {"smiles": "OC[C@@H]1[C@@H](c2ccc(Cl)cc2)C(c2cccc(Cl)c2)=NN1c1ccccc1", "Potency": "inconclusive [activator, partial curve, poor fit]"},
      {"smiles": "Cc1ccc(N2C(=O)C3C4C=CC(CNC(=S)N5CCN(c6ccccn6)CC5)(O4)C3C2=O)cc1", "note": "(centres undefined)", "Potency": "inconclusive [activator, single point]"},
      {"smiles": "CCCOc1ccc(/C=C/c2[nH]c(=O)[nH]c(=O)c2[N+](=O)[O-])cc1OCC", "Potency": "inconclusive [activator, single point]"},
      {"smiles": "CCC(=O)/C=C1\\Sc2ccc(OC)cc2N1CCO", "Potency": "inconclusive [activator, partial curve, poor fit]"},
      {"smiles": "CCOC(=O)c1sc(C)c2c1NC(C)(c1cccs1)NC2=O", "note": "(centres undefined)", "Potency": "inactive"},
      {"smiles": "O=C(CN1C(=O)S/C(=C/c2cccs2)C1=O)N1CCCC1", "Potency": "inconclusive [activator, partial curve, poor fit]"},
      {"smiles": "Cc1cc(C(C)(C)C)ccc1OCCOCCN1CCCC1", "Potency": "inconclusive [activator, partial curve, poor fit]"},
      {"smiles": "CNC(=S)NCCc1ccc(OC)cc1", "Potency": "inactive"},
      {"smiles": "CC1CCCN(S(=O)(=O)c2ccc(C(=O)Nc3nnc(-c4ccccc4Cl)o3)cc2)C1", "note": "(centres undefined)", "Potency": "inconclusive [activator, full curve, poor fit]"},
      {"smiles": "CCOC(=O)C1=C(CC)Nc2ccccc2N=C1NC(=O)c1ccc(C)c(S(=O)(=O)N2CCOCC2)c1", "Potency": "inactive"},
      {"smiles": "Cc1[nH]n2c(=O)c3c(nc2c1-c1ccc(F)cc1)CCCC3", "Potency": "inactive"},
      {"smiles": "NNC(=O)c1[nH]c2ccc([N+](=O)[O-])cc2c1-c1ccccc1", "Potency": "inconclusive [activator, full curve, poor fit]"},
      {"smiles": "CC1=C(C(=O)OCC2CCCO2)C(c2cccc(O)c2)NC(=O)N1", "note": "(centres undefined)", "Potency": "inconclusive [activator, single point]"},
      {"smiles": "COc1cc(N2C(=O)C=CC2=O)c(OC)cc1Cl", "Potency": "active: 5.8 µM"},
      {"smiles": "N#Cc1nc(COc2ccccc2F)oc1N1CCCCCC1", "Potency": "inconclusive [activator, partial curve, poor fit]"},
      {"smiles": "O=C(CSc1nc(Nc2ccccc2)nc(N2CCOCC2)n1)Nc1ccc2c(c1)OCCO2", "Potency": "active: 18.4 µM"},
      {"smiles": "COc1cc(/C=C/c2noc(-c3ccccc3O)n2)ccc1OC(C)=O", "Potency": "inconclusive [activator, partial curve]"},
      {"smiles": "COc1ccc(/C=N/Nc2nnc(-c3ccccc3)c(=O)[nH]2)cc1", "Potency": "inconclusive [activator, single point]"},
      {"smiles": "COc1ccc(NC(=O)COc2cccc3c2OC(C)(C)C3)c(OC)c1", "Potency": "inconclusive [activator, partial curve, poor fit]"},
      {"smiles": "COc1ccccc1N1CCN(C(=O)c2c(-c3ccccc3Cl)noc2C)CC1", "Potency": "inactive"},
      {"smiles": "Cn1cc(CC(=O)Nc2cccc(C#N)c2)c2ccccc21", "Potency": "inconclusive [activator, single point]"},
      {"smiles": "Cc1cc2cc(CNC(=S)Nc3ccc(OC(F)(F)F)cc3)ccc2[nH]1", "Potency": "inconclusive [activator, single point]"},
      {"smiles": "COc1cc(NC(=O)c2ccc(C(C)(C)C)cc2)c(OC)cc1NC(=O)CN1CCCCC1", "Potency": "inconclusive [activator, partial curve, poor fit]"},
      {"smiles": "O=C(CSCC(=O)Nc1cccc2ccccc12)Nc1cccc2ccccc12", "Potency": "inconclusive [activator, partial curve]"},
      {"smiles": "CC(=O)O/N=C/c1c(NCc2ccccc2)nc2c(C)cccn2c1=O", "Potency": "inactive"},
      {"smiles": "S=c1[nH]nc(COc2ccccc2)n1/N=C/c1ccccn1", "Potency": "inactive"},
      {"smiles": "CCCC(=O)N(CCc1ccc(OC)cc1)Cc1nc2ccccc2c(=O)[nH]1", "Potency": "inactive"},
      {"smiles": "CNC(=O)c1c(NC(=O)c2cccc(N3C(=O)CCC3=O)c2)sc2c1CCCC2", "Potency": "inconclusive [activator, single point]"},
      {"smiles": "COc1cc(NC(=O)CSc2nc3ccccc3n2-c2ccccc2)c(C)cc1[N+](=O)[O-]", "Potency": "inconclusive [activator, full curve, poor fit]"},
      {"smiles": "O=C(Cc1cccs1)Nc1nc(-c2ccccc2)cs1", "Potency": "inconclusive [activator, partial curve, poor fit]"},
      {"smiles": "FC(F)Sc1ccc(NC(=S)NC(c2ccccc2)c2ccccc2)cc1", "Potency": "active: 3.66 µM"},
      {"smiles": "COC(=O)c1ccccc1S(=O)(=O)N(Cc1cc2ccc(OC)cc2[nH]c1=O)CC1CCCO1", "note": "(centres undefined)", "Potency": "inactive"},
      {"smiles": "CCSc1nc2ccc(N3C(=O)C4C5C=CC(C5)C4C3=O)cc2s1", "note": "(centres undefined)", "Potency": "inconclusive [activator, partial curve]"},
      {"smiles": "COc1ccccc1Nc1nc(N)nc(CCl)n1", "Potency": "inconclusive [activator, partial curve, poor fit]"},
      {"smiles": "COc1ccc(C2NC(=S)NC(C)=C2C(=O)c2ccccc2)cc1OC", "note": "(centres undefined)", "Potency": "inconclusive [activator, single point]"},
      {"smiles": "COc1ccccc1CNC(=O)c1c(N)n(CCCN2CCOCC2)c2nc3ccccc3nc12", "Potency": "inconclusive [activator, partial curve, poor fit]"},
      {"smiles": "Fc1ccccc1OCCCCCCN1CCCC1", "Potency": "inconclusive [activator, partial curve, poor fit]"},
      {"smiles": "COc1ccc(CN(C)C(C)C(=O)Nc2ccc(S(=O)(=O)N3CCCCC3)cc2)c(OC)c1", "note": "(centres undefined)", "Potency": "active: 18.4 µM"},
      {"smiles": "Cc1cc(=O)[nH]c(SCC(=O)C23CC4CC(CC(C4)C2)C3)c1C#N", "Potency": "inconclusive [activator, single point]"},
      {"smiles": "COc1cc(-c2ccc3sc(-c4ccsc4)c(C#CCO)c3c2)cc(OC)c1OC", "Potency": "active: 11.6 µM"},
      {"smiles": "O=S(=O)(c1ccccc1)c1nc(NCc2ccccc2)sc1Cl", "Potency": "inconclusive [activator, single point]"},
      {"smiles": "O=C1N=C2SCCN2/C1=C\\c1ccc(Cl)cc1", "Potency": "active: 18.4 µM"},
      {"smiles": "COc1ccc(C2CC(=O)c3c(O)cc(O)cc3O2)c(CC=C(C)C)c1OC", "note": "(centres undefined)", "Potency": "inconclusive [activator, partial curve, poor fit]"},
      {"smiles": "Cc1ccc(C)c(-n2c3nc(=O)n(C)c(=O)c-3cc3ccccc32)c1", "Potency": "active: 14.6 µM"},
      {"smiles": "CC(=O)N/N=C(\\C)c1ccc2c(c1)OCCO2", "Potency": "inactive"},
      {"smiles": "O=C(N/N=C/C=C/c1ccco1)c1ccccc1Cl", "Potency": "inconclusive [activator, partial curve, poor fit]"}
    ]}
  ]
}
